Laboratory results from the supplement of paper PMC10369915.
Some of the results follow. Rule as the data show it: active = 3.2 or more and inactive = the rest. Only a few entries rise above the background.

B1: ATM_Y332 (peptide)
chain: GSRGKYSSGFR
B2: ATM_Y332_R337H (peptide)
chain: GSRGKYSSGFH
B3: ATM_Y54 (peptide)
chain: SKQGKYLNWDA
B4: ATM_Y54_S49C (peptide)
chain: CKQGKYLNWDA
B5: ATP2A2_Y836 (peptide)
chain: WLFFRYLAIGC
B6: ATP2A2_Y836_A838P (peptide)
chain: WLFFRYLPIGC
B7: ATP5F1B_Y269 (peptide)
chain: KVALVYGQMNE
B8: ATP6V0A2_Y688_R685Q (peptide)
chain: VNQSGYTLIRK
B9: ATP6V0D2_Y271_G272R_YF (peptide)
chain: NVADHYRVFKP
B10: ATP6V0D2_Y271_YF (peptide)
chain: NVADHYGVFKP
B11: ATP6V1A_Y374_D371G (peptide)
chain: PAGSGYPAYLG
B12: ATP6V1A_Y374_D371G_YF (peptide)
chain: PAGSGYPAFLG
B13: ATR_Y317 (peptide)
chain: NIEPVYLNMLL
B14: ATRX_Y1849_Y1847C (peptide)
chain: CKLCQYYLDHL
B15: ATRX_Y1849_Y1847C_YF (peptide)
chain: CKLCQYFLDHL
B16: ATRX_Y203_C200S_YF (peptide)
chain: KNSFKYFMSDD
B17: ATRX_Y204_C200S_YF (peptide)
chain: NSFKFYMSDDI
B18: ATRX_Y2083 (peptide)
chain: LRNIDYYRLDG

The binders below were run against SHP2 C-SH2 domain E139D (assay: enrichment score (SH2-bound / input frequency) (ratio); bacterial display of known human phosphotyrosine sites (pTyr-Var adds point mutants) read by sequencing; higher = stronger binding; tyrosines were phosphorylated by kinases first). Conditions: peptide library: pTyr-Var.
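Also: displayed peptides selected on beads carrying the immobilized SH2 domain, with library peptides lacking any tyrosine serving as negative controls.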

Enrichment score, inactive:
B1 0.426
B2 0.774
B3 1.08
B4 0.874
B5 0.807
B6 3.01
B7 0.844
B8 0.907
B9 0.544
B10 0.843
B11 0.743
B12 0.864
B13 0.925
B14 2.25
B15 2.92
B16 1.21
B17 0.829
B18 1.65

These binders were tested against SHP2 C-SH2 domain wild-type in the same assay as above. Conditions: peptide library: pTyr-Var.

Enrichment score, inactive:
B1 0.407
B2 0.629
B3 1.01
B4 0.973
B5 1.05
B6 2.49
B7 0.896
B8 2.01
B9 0.583
B10 0.552
B11 0.591
B12 0.792
B13 0.873
B14 2.37
B15 3.09
B16 0.763
B17 0.604
B18 3.04

What follows are binders tested against SHP2 N-SH2 domain L43F in the same assay as above. Conditions: peptide library: pTyr-Var.

Enrichment score, inactive:
B1 0.437
B2 0.666
B3 1.06
B4 0.865
B5 0.792
B6 2.4
B7 0.875
B8 0.649
B9 0.663
B10 0.712
B11 0.604
B12 0.806
B13 0.663
B14 2.26
B15 3.12
B16 0.84
B17 0.698
B18 1.09

What follows are binders tested against SHP2 N-SH2 domain T42A in the same assay as above. Conditions: peptide library: pTyr-Var.

Enrichment score, inactive:
B1 0.446
B2 0.64
B3 0.96
B4 0.953
B5 0.522
B6 2.13
B7 0.764
B8 0.547
B9 0.583
B10 0.589
B11 0.501
B12 0.862
B13 0.722
B14 2.35
B15 2.61
B16 0.791
B17 0.674
B18 0.674

These binders were tested against SHP2 N-SH2 domain T52S in the same assay as above. Conditions: peptide library: pTyr-Var.

Enrichment score, inactive:
B1 0.427
B2 0.789
B3 0.952
B4 1.04
B5 0.801
B6 2.78
B7 0.972
B8 0.567
B9 0.606
B10 1.05
B11 0.775
B12 0.95
B13 0.683
B14 2.32
B15 2.64
B16 0.911
B17 0.665
B18 1

Each binder was assayed against SHP2 N-SH2 domain wild-type in the same assay as above. Conditions: peptide library: pTyr-Var.

Enrichment score, inactive:
B1 0.345
B2 0.69
B3 1.04
B4 1.06
B5 0.856
B6 2.33
B7 0.923
B8 0.567
B9 0.708
B10 0.763
B11 0.708
B12 0.95
B13 1.03
B14 1.96
B15 2.4
B16 0.873
B17 0.738
B18 1.32
